From PubChem BioAssay AID1460 (National Center for Advancing Translational Sciences (NCATS), 2008)
About 5,800 (2.1%) of roughly 270,000 compounds were called active. The inconclusive results got no clear call from the source; some entries with a clear call stand among them for comparison. Calls come from the whole dose curve; as a rule, active = well fitted inhibition curve with a large enough effect; inconclusive = small, poorly fitted or top-dose-only effect; inactive = flat fitted curve, though single readings scatter. Where the call is inconclusive, the potency comes from a doubtful curve fit.

What follows are molecules tested against Microtubule-associated protein tau (Homo sapiens) (UniProt P10636) (assay: qHTS for Inhibitors of Tau Fibril Formation, Thioflavin T Binding). Conditions: recombinant tau K18 P301L (four-repeat tau fragment), heparin-induced fibrillization, ThT fluorescence; series mostly up to 57.4 µM.
Outline: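 Heparin-induced fibrillization of the P301L-mutant K18 repeat-domain fragment of human tau was followed by ThT binding in quantitative high-throughput format.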
% is set by controls: 0 for no effect and ±100 for the full control effect; potency is the fitted concentration of half-maximal effect; tags give direction and shape of the fitted curve.
Note: nearly all actives have a fitted effect of over 55% in size.

Sequence of UniProt P10636 (P10636 whole entry, looked up, the tested form may be a part): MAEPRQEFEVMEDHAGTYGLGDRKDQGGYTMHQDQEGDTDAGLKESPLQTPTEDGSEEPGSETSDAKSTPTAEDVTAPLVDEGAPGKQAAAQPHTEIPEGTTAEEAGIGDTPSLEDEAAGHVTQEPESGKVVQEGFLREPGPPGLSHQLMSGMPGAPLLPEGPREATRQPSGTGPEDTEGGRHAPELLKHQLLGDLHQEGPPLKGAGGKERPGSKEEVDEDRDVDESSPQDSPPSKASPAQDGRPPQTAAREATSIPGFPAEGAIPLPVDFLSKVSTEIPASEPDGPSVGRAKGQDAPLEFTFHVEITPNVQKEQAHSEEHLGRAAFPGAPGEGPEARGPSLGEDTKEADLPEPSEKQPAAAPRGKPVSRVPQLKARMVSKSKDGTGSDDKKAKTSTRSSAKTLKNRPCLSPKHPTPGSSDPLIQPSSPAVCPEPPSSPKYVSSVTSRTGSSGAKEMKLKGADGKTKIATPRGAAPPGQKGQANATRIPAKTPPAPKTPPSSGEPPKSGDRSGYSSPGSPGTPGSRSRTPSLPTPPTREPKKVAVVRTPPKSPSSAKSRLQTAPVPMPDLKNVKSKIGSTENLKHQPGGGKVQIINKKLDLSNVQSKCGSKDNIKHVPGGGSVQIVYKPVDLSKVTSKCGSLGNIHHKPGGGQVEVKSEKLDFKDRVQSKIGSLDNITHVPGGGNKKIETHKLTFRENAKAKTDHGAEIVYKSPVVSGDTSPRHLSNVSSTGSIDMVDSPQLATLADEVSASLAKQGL

| SMILES | Potency | activity, negative = inhibition |
| --- | --- | --- |
| Cc1ccc(Nc2ccc(N)cc2S(=O)(=O)O)cc1 | inconclusive: 14.1 µM [inhibitor, partial curve] | – |
| Cc1ccc2nc(NC(=O)C3=NN(c4ccccc4)C(=O)CC3)sc2c1 | inconclusive: 25.1 µM [inhibitor, partial curve] | – |
| Cc1cccc(C)c1NC(=O)N1CC=C(n2c(=O)[nH]c3ccccc32)CC1 | inconclusive: 28.2 µM [inhibitor, partial curve] | – |
| CCOc1ccc(C(=O)C2CCN(C(=O)c3ccccc3C(=O)O)CC2)cc1 | inactive | – |
| CSc1nn(CC(=O)Nc2cc(C)ccc2C)c(N)c1S(=O)(=O)c1ccccc1 | inactive | – |
| CN=c1nc(-c2ccccc2)n(-c2ccccc2)s1 | active: 22.4 µM | – |
| CCCCNC(=O)CSc1nc2ccc(N3CCOCC3)cc2c(=O)n1Cc1ccc(OC)cc1 | inconclusive: 35.5 µM [inhibitor, single point] | – |
| COc1ccc(C(=O)Oc2cc(-c3ccc(OC)c(OC)c3)cc(=O)c3c(C)oc(C)c23)cc1 | inconclusive: 22.4 µM [inhibitor, partial curve] | – |
| CCS(=O)(=O)Nc1ccc(-c2cn3c(C)csc3n2)cc1 | inconclusive: 17.8 µM [inhibitor, single point] | – |
| O=C(N=Nc1c(O)n(Cc2ccccc2)c2ccccc12)c1cc2ccccc2cc1O | active: 12.6 µM | – |
| Cc1ccc(C2=NN=C(NC(=O)CSc3nc(C)cc(C)n3)SC2)cc1 | active: 12.6 µM | – |
| CCN1C(=O)c2ccccc2S(=O)c2ccc(C(=O)NCc3ccc(Cl)cc3)cc21 (stereo not drawn) | inactive | – |
| O=C1CCSC2(C(=O)N(Cc3ccc(F)cc3)c3ccccc32)N1c1cccc(F)c1 (stereo not drawn) | inconclusive: 31.6 µM [inhibitor, single point] | – |
| CCN(CC)C(=O)C1CCCN(c2ccc([N+](=O)[O-])cc2/C=N/NC(=O)c2cccc(O)c2)C1 (stereo not drawn) | inconclusive: 28.2 µM [inhibitor, single point] | – |
| O=C(Cn1cc(C(=O)c2cccs2)c2ccccc21)Nc1ccc(Br)cc1 | inconclusive: 5.01 µM [activator, single point] | – |
| Cc1cc(N2CCCCC2)nc2ccc(NC(=O)CCC(=O)NCCC(C)C)cc12 | inconclusive: 15.8 µM [inhibitor, partial curve] | – |
| O=C(NC(=S)Nc1ccc2c(c1)C(=O)c1ccccc1C2=O)c1ccc(F)cc1 | inconclusive: 5.01 µM [inhibitor, partial curve] | – |
| CCCOc1cccc(C(=O)Nc2cccc(NC(=O)c3ccc(Cl)cc3Cl)c2)c1 | inconclusive: 17.8 µM [inhibitor, partial curve] | – |
| Clc1ccc(-n2nnc(-c3cccnc3)n2)cc1Cl | inconclusive: 1.12 µM [inhibitor, single point] | – |
| CC(C)C(=O)Nc1nnc(S(=O)(=O)N2c3ccccc3CC2C)s1 (stereo not drawn) | inconclusive: 11.2 µM [inhibitor, partial curve, poor fit] | – |
| O=C(Cc1ccccc1)Nc1cccc(N2C(=O)C=CC2=O)c1 | inconclusive: 39.8 µM [activator, single point] | – |
| O=C(Oc1cccc2cccnc12)c1ccc2c(c1)OCCO2 | inactive | – |

| SMILES | Potency | activity, negative = inhibition |
| --- | --- | --- |
| NNC(=O)c1cc2c(ccc3ccccc32)o1 | inconclusive: 10 µM [inhibitor, partial curve] | – |
| COc1cc(-c2nc3ccccn3c2/N=C/c2ccc(F)cc2)ccc1O | inconclusive: 22.4 µM [inhibitor, partial curve] | – |
| O=C(/C=C(\O)c1ccccc1)c1ccccc1O | inconclusive: 1.58 µM [inhibitor, full curve] | – |
| Cc1ccc(C2=NNC3(CCOC(C)(C)C3)S2)cc1 (stereo not drawn) | inconclusive: 8.91 µM [inhibitor, partial curve] | – |
| Cc1cc(C(=O)COc2ccc3ccc(=O)oc3c2)c(C)n1C | inconclusive: 12.6 µM [inhibitor, partial curve] | – |
| COc1ccccc1-n1c(=S)[nH]c2c(sc(=S)n2-c2ccccc2C)c1=O | inconclusive: 31.6 µM [inhibitor, single point] | – |
| COc1ccc(CNC(=O)c2sc3nc4n(c(=O)c3c2C)CCC4)cc1 | inconclusive: 39.8 µM [inhibitor, single point] | – |
| COc1ccc(-n2ccn(CC(=O)Nc3ccc(C)cc3C)c(=O)c2=O)cc1 | inconclusive: 0.126 µM [inhibitor, full curve, poor fit] | – |
| Cc1ccc(Nc2nc(Nc3ccc(C)cc3)nc(SC3=NCCS3)n2)cc1 | inconclusive: 3.98 µM [inhibitor, full curve] | – |
| O=C(CCc1ccccc1)Nc1ccc(N2CCCCC2)cc1 | inconclusive: 11.2 µM [inhibitor, partial curve] | – |
| O=C(CCS(=O)(=O)c1cc(Br)cc2c1N(C(=O)C1CC1)CC2)N1CCN(c2cccc(C(F)(F)F)c2)CC1 | inconclusive: 20 µM [inhibitor, partial curve] | – |
| Cc1cc(C)c2cc(C#N)c(SCC(=O)NCc3ccco3)nc2c1 | inconclusive: 25.1 µM [inhibitor, partial curve, poor fit] | – |
| COc1ccc(C(=O)c2ccccc2)cc1 | inactive | – |
| CC(C(=O)Nc1cccnc1)C1Sc2ccccc2NC1=O (stereo not drawn) | inconclusive: 31.6 µM [inhibitor, single point] | – |
| CC(C)C(=O)N(Cc1ccccc1)c1ccccn1 | inactive | – |
| COC(=O)NC(CC(C)=O)c1cccc(F)c1 (stereo not drawn) | – | inactive: 8.84% [at 11.5 µM] |
| COc1ccccc1N1CCN(C(=O)CNS(=O)(=O)c2ccc(Br)s2)CC1 | inactive | – |
| Cc1cc(N=NC(=O)c2ccccc2)ccc1O | inconclusive: 25.1 µM [inhibitor, partial curve] | – |
| Cn1cnc(S(=O)(=O)N2CCC(C(=O)Nc3ccc(Cl)c(C(F)(F)F)c3)CC2)c1 | inactive | – |
| COCCCNc1nc(SCc2ccccc2)nc2sc3c(c12)CCC3 | inconclusive: 28.2 µM [inhibitor, single point] | – |
| C/C(=C\C(=O)c1ccc(Cl)cc1Cl)N(C)C | inconclusive: 28.2 µM [inhibitor, single point] | – |
